Out of some 3,200 compounds screened, about 110 (3.4%) showed an effect of 50% or more. The list shows a part of the results.
These compounds were tested on T1, V. cholerae SAD30. Details: relative growth, OD600, LB; 25 µM; inhibitor.
T1 construct: SAD30
Parameters: species or system S. aureus MSSA476 (TSB) or V. cholerae SAD30 (LB); 384-well bacterial growth screen at 25 uM, OD600 relative to DMSO control

**Q.** With `N#CC(=Cc1cccc2c1OCO2)C(=O)Nc1cccc2ccccc12` [8-K12, 3-(1,3-dioxaindan-4-yl)-2-cyano-N-(naphthalen-1-yl)prop-2-enamide] as the compound, how does the “% of control remaining” value read?
**A.** 70.3603%

**Q.** With `O=C(CCl)c1ccc2c(c1)-c1ccccc1C2` [10-H17, 2-chloro-1-(9H-fluoren-3-yl)ethan-1-one] as the compound, how does the “% of control remaining” value read?
**A.** 91.4865%

**Q.** How did the “% of control remaining” value turn out when `CC(Cl)C(=O)N1CCc2ccccc21` (stereo not drawn) [5-H04, 2-chloro-1-(2,3-dihydro-1H-indol-1-yl)propan-1-one] was run?
**A.** 105.075%

**Q.** How did the “% of control remaining” value turn out when `C=CC(=O)N1CCCc2c(OCC(N)=O)cccc21` [3-D22, 2-{[1-(prop-2-enoyl)-1,2,3,4-tetrahydroquinolin-5-yl]oxy}acetamide] was run?
**A.** 115.909%

**Q.** For `O=C(CCl)NCc1ccc(OC(F)(F)F)cc1` [6-G08, 2-chloro-N-{[4-(trifluoromethoxy)phenyl]methyl}acetamide], which “% of control remaining” value is on record?
**A.** 91.3072%

**Q.** Which “% of control remaining” value does the source give for `C=CC(=O)NC(C)Cc1cccn1C` (stereo not drawn) [3-M22, N-[1-(1-methyl-1H-pyrrol-2-yl)propan-2-yl]prop-2-enamide] here?
**A.** 102.147%

**Q.** Which “% of control remaining” value does the source give for `N#CC(=Cc1ccc(Cl)cc1)C(=O)Nc1ccc2c(c1)OCCO2` [9-E22, 3-(4-chlorophenyl)-2-cyano-N-(2,3-dihydro-1,4-benzodioxin-6-yl)prop-2-enamide] here?
**A.** 93.0659%

**Q.** `C=CC(=O)N1CCCn2ncc(C3CC3)c21` [3-M15, 1-{3-cyclopropyl-4H,5H,6H,7H-pyrazolo[1,5-a]pyrimidin-4-yl}prop-2-en-1-one] was tested. Which “% of control remaining” value did it give?
**A.** 98.6179%

**Q.** Which “% of control remaining” value does the source give for `CCN(Cc1ccc(C#N)cc1F)C(=O)CCl` [5-H08, 2-chloro-N-[(4-cyano-2-fluorophenyl)methyl]-N-ethylacetamide] here?
**A.** 90.953%

**Q.** `Cc1ccc(Cl)c(NC(=O)CCl)c1Cl` [4-D10, 2-chloro-N-(2,6-dichloro-3-methylphenyl)acetamide] was tested. Which “% of control remaining” value did it give?
**A.** 87.2978%

**Q.** For `CC(NC(=O)C(C#N)=Cc1ccco1)c1cccnc1` (stereo not drawn) [9-K03, 2-cyano-3-(furan-2-yl)-N-[1-(pyridin-3-yl)ethyl]prop-2-enamide], which “% of control remaining” value is on record?
**A.** 97.1448%

**Q.** For `CC(Cl)C(=O)NC1CCC(C)(C)c2ccccc21` (stereo not drawn) [6-H21, 2-chloro-N-(4,4-dimethyl-1,2,3,4-tetrahydronaphthalen-1-yl)propanamide], which “% of control remaining” value is on record?
**A.** 85.2403%

**Q.** Which “% of control remaining” value does the source give for `O=C(c1ccccc1)c1cc(Cl)ccc1N1C(=O)C=CC1=O` [10-M16, 1-(2-benzoyl-4-chlorophenyl)-2,5-dihydro-1H-pyrrole-2,5-dione] here?
**A.** 57.9778%

**Q.** `C=CC(=O)N1CCC(C(=O)Oc2ccc(NC(C)=O)cc2)CC1` [3-M16, 4-acetamidophenyl 1-(prop-2-enoyl)piperidine-4-carboxylate] was tested. Which “% of control remaining” value did it give?
**A.** 96.1478%

**Q.** `C=CC(=O)N1CCN(Cc2cc(=O)n3ccsc3n2)CC1` [3-F22, 7-{[4-(prop-2-enoyl)piperazin-1-yl]methyl}-5H-[1,3]thiazolo[3,2-a]pyrimidin-5-one] was tested. Which “% of control remaining” value did it give?
**A.** 108.675%

**Q.** How did the “% of control remaining” value turn out when `COc1ccc([N+](=O)[O-])cc1N1C(=O)C=CC1=O` [10-P13, 1-(2-methoxy-5-nitrophenyl)-2,5-dihydro-1H-pyrrole-2,5-dione] was run?
**A.** 32.7294%

**Q.** Which “% of control remaining” value does the source give for `O=C(CCl)NCCc1cccc(Cl)c1` [5-O05, 2-chloro-N-[2-(3-chlorophenyl)ethyl]acetamide] here?
**A.** 115.33%

**Q.** `C=CC(=O)NCCN(C)S(=O)(=O)c1cccs1` [2-A09, N-[2-(N-methylthiophene-2-sulfonamido)ethyl]prop-2-enamide] was tested. Which “% of control remaining” value did it give?
**A.** 91.8942%

**Q.** How did the “% of control remaining” value turn out when `CCN(CC)C(=O)c1cccc(NC(=O)CCl)c1` [5-I03, 3-(2-chloroacetamido)-N,N-diethylbenzamide] was run?
**A.** 111.296%

**Q.** `C=CC(=O)NCc1ccc(N2CCCC(C(N)=O)C2)cc1` (stereo not drawn) [1-P19, 1-{4-[(prop-2-enamido)methyl]phenyl}piperidine-3-carboxamide] was tested. Which “% of control remaining” value did it give?
**A.** 98.2063%

**Q.** `COc1ccc(CCN2C(=O)C=CC2=O)cc1` [10-A05, 1-[2-(4-methoxyphenyl)ethyl]-2,5-dihydro-1H-pyrrole-2,5-dione] was tested. Which “% of control remaining” value did it give?
**A.** 35.8465%

**Q.** For `O=C(CCl)NC(c1ccc(F)c(Cl)c1)C(F)(F)F` (stereo not drawn) [7-D16, 2-chloro-N-[1-(3-chloro-4-fluorophenyl)-2,2,2-trifluoroethyl]acetamide], which “% of control remaining” value is on record?
**A.** 75.2024%

**Q.** Which “% of control remaining” value does the source give for `O=C(Nc1ccc(F)cc1)N1CCSSCC1` [10-D21, N-(4-fluorophenyl)-1,2,5-dithiazepane-5-carboxamide] here?
**A.** 104.578%

**Q.** How did the “% of control remaining” value turn out when `CCSc1nnc(NC(=O)CCl)s1` [5-N22, 2-chloro-N-[5-(ethylsulfanyl)-1,3,4-thiadiazol-2-yl]acetamide] was run?
**A.** 107.429%

**Q.** How did the “% of control remaining” value turn out when `Cl.O=C(CCl)N1CCN(CCOc2ccccc2)CC1` [4-H14, 2-chloro-1-[4-(2-phenoxyethyl)piperazin-1-yl]ethan-1-one hydrochloride] was run?
**A.** 99.3746%

**Q.** Which “% of control remaining” value does the source give for `Cc1nc2cc(NC(=O)C(C#N)=Cc3ccco3)ccc2n1C` [9-B18, 2-cyano-N-(1,2-dimethyl-1H-1,3-benzodiazol-5-yl)-3-(furan-2-yl)prop-2-enamide] here?
**A.** 87.7634%

**Q.** How did the “% of control remaining” value turn out when `COc1cc(Cl)c(C)cc1NC(=O)C(C#N)=CC=Cc1ccccc1` [8-A21, N-(4-chloro-2-methoxy-5-methylphenyl)-2-cyano-5-phenylpenta-2,4-dienamide] was run?
**A.** 93.0659%

**Q.** `C=CC(=O)NCc1ccnc(N2CCOCC2)c1` [1-C09, N-{[2-(morpholin-4-yl)pyridin-4-yl]methyl}prop-2-enamide] was tested. Which “% of control remaining” value did it give?
**A.** 91.1809%

**Q.** With `CC(Cl)C(=O)Nc1cc(C(C)(C)C)nn1-c1ccccc1` (stereo not drawn) [4-H11, N-(3-tert-butyl-1-phenyl-1H-pyrazol-5-yl)-2-chloropropanamide] as the compound, how does the “% of control remaining” value read?
**A.** 95.579%

**Q.** How did the “% of control remaining” value turn out when `CC(Cl)C(=O)Nc1ccc([N+](=O)[O-])cc1` (stereo not drawn) [4-I18, 2-chloro-N-(4-nitrophenyl)propanamide] was run?
**A.** 95.4065%

— article PMC11995724, “Antibiotic target discovery by integrated phenotypic and activity-based profiling of electrophilic fragments” (Cell chemical biology, 2025)
